Laboratory results taken from PubChem BioAssay AID902 (National Center for Advancing Translational Sciences (NCATS), 2007).
The whole screen tested about 130,000 compounds, of which about 1,900 (1.5%) were called active. The shares of active, inactive and inconclusive entries below differ from those in the screen. Calls follow the shape of the dose curve; as a rule, active = well fitted cell-killing curve with a large enough effect; inconclusive = small, poorly fitted or top-dose-only effect; inactive = no such curve, though single readings can be large or run the other way. A potency beside an inconclusive call is a rough fit, not a confirmed value.

Assay: qHTS Screen for Compounds that Selectively Target Cancer Cells with p53 Mutations: Cytotoxicity of p53ts Cells at the Nonpermissive Temperature; also: nearly all actives have a fitted effect of over 55% in size
Conditions: H1299-p53A138V viability at 39C, ATP luminescence, 24 h; activity change, negative = cell killing: at 46.1 µM (top of the series)
% is scaled to controls: 0 for no effect and ±100 for the full control effect; potency is read from the fitted curve at half-maximal effect; tags tell the direction and shape of the fitted curve.

Row | SMILES | Potency | activity change, negative = cell killing
1 | Cc1cccc(Cn2nnc3c(=O)[nH]c(C4CCCN(C(=O)c5ccc(C(C)(C)C)cc5)C4)nc32)c1 (configuration not stated) | active: 25.1 µM | –
2 | O=C(Cc1cccs1)NCc1ccc2c(c1)OCO2 | – | inactive: -8.73%
3 | CCN(CC)S(=O)(=O)c1ccc2nnn(OCC(=O)Nc3cccc(C#N)c3)c2c1 | inconclusive: 31.6 µM [cytotoxic, single point] | –
4 | CN(C)C(=O)c1ccc(-c2nc(Nc3ccccc3)c3ccccc3n2)cc1 | inconclusive: 12.6 µM [cytotoxic, partial curve] | –
5 | Cc1ccc(C)n1-c1ccccc1N | inconclusive: 15.8 µM [cytotoxic, single point] | –
6 | CN(C)S(=O)(=O)c1ccc(NC(=O)c2ccccn2)cc1 | active: 10 µM | –
7 | COc1ccc2oc(=O)c(-c3nc4ccc(C)cc4[nH]3)cc2c1 | inconclusive: 6.31 µM [cytotoxic, partial curve, poor fit] | –
8 | CCCN1C(C(=O)c2ccccc2)=C(OC(=O)C(C)(C)C)c2ccccc2S1(=O)=O | inconclusive: 1.58 µM [cytotoxic, partial curve, poor fit] | –
9 | O=C(Nc1ccc(Cl)cc1C(F)(F)F)c1cc(S(=O)(=O)NCc2ccccc2)ccc1F | inconclusive: 12.6 µM [cytotoxic, partial curve] | –
10 | CCc1ccc(CNC(=O)c2ccc(CS(=O)(=O)Cc3ccccc3C)o2)cc1 | – | inactive: -23.5%
11 | COc1ccc(CNC(=O)CCS(=O)(=O)c2ccc3c(c2)CC(C)N3C(=O)C2CC2)cc1 (configuration not stated) | inconclusive: 35.5 µM [cytotoxic, single point] | –
12 | c1ccc(Cc2ccc(OCCn3cncn3)cc2)cc1 | – | inactive: -5.87%
13 | O=C(Cn1c(=O)n(-c2ccccc2)c(=O)c2c3c(sc21)CCCC3)Nc1ccc(F)cc1 | inconclusive: 12.6 µM [cytotoxic, single point] | –
14 | CCC1Oc2ccccc2N(CC(=O)NCc2ccc(C)cc2)C1=O (configuration not stated) | inconclusive: 2.51 µM [cytotoxic, full curve, poor fit] | –
15 | COc1ccc(NC(=O)N2CCCC3(CCN(S(C)(=O)=O)CC3)C2)cc1 | – | inactive: -3.55%
16 | CC(=O)c1cccc(NC(=O)c2cc(C(C)C)on2)c1 | inconclusive: 25.1 µM [cytotoxic, partial curve] | –
17 | Cc1ccc(-c2nc(NC(=O)CSc3nnnn3-c3ccccc3)ns2)cc1 | inconclusive: 31.6 µM [cytotoxic, single point] | –
18 | CCc1ccc(S(=O)(=O)c2nnn3c2nc(NCCC(C)C)c2cc(Cl)ccc23)cc1 | inconclusive: 7.94 µM [cytotoxic, partial curve] | –
19 | Cc1ccc(Nc2c(-c3cccc(Cl)c3)nc3cccc(C)n23)cc1 | inconclusive: 0.0251 µM [cytotoxic, full curve] | –
20 | Cn1c(=O)nc2n(-c3ccc(Br)cc3)c3cccc(Cl)c3cc-2c1=O | – | inactive: 8.85%
21 | COc1ccccc1N1CCN(Cc2cc(COC(C)C)c3cccnc3c2O)CC1 | active: 2.51 µM | –
22 | Cc1cccc(Cc2c(C)nc3nc(SCC(=O)NC4CCCCC4)nn3c2C)c1 | – | inactive: -18.3%
23 | CCOc1ccccc1CNC(=O)c1ccc(Cn2c(=O)c3cccn3c3cccnc32)cc1 | – | inactive: -2.41%

Row | SMILES | Potency | activity change, negative = cell killing
24 | Cc1ccc(OCC(=O)Nc2cccc(C)n2)c(C)c1 | inconclusive: 12.6 µM [cytotoxic, single point] | –
25 | COc1ccc(CNC(=O)Cc2csc3nc(-c4ccc(C)cc4)cn23)cc1 | inconclusive: 2.51 µM [cytotoxic, full curve] | –
26 | Cc1ccc(Cl)cc1N1CCN(C(=O)C2CCN(Cc3nc(-c4cccc(Cl)c4)oc3C)CC2)CC1 | inconclusive: 15.8 µM [cytotoxic, single point] | –
27 | Cc1cccc(-c2nc(SCC(=O)Nc3ccc4c(c3)OCCO4)c(-c3ccccc3)[nH]2)c1 | inconclusive: 31.6 µM [cytotoxic, single point] | –
28 | CC1=C(C(=O)OC2CCCC2)C(c2ccccc2Cl)CC(=O)N1 (configuration not stated) | – | inactive: -25.2%
29 | Nc1nc(Cl)nc2c1ncn2[C@@H]1O[C@@H](COP(=O)(O)OP(=O)(O)OP(=O)(O)O)[C@@H](O)[C@H]1O | inconclusive: 12.6 µM [cytotoxic, partial curve] | –
30 | COc1ccc(NC(=O)C2CCCN2S(=O)(=O)c2ccc3nc(-c4ccccc4)[nH]c3c2)cc1 (configuration not stated) | inconclusive: 31.6 µM [cytotoxic, single point] | –
31 | CCS(=O)(=O)CCSc1nc(-c2ccc(Br)cc2)cc(-c2ccccc2)c1C#N | inconclusive: 12.6 µM [cytotoxic, single point] | –
32 | CCn1c2ccccc2c2cc(NC(=O)COc3ccc(C)c(C)c3)ccc21 | inconclusive: 12.6 µM [cytotoxic, single point] | –
33 | Nc1cc(-c2ccccc2)ccc1O | – | inactive: -27.2%
34 | O=c1c2[nH]c3ccccc3c2nc(SCc2cccc(F)c2)n1-c1ccccc1 | inconclusive: 31.6 µM [cytotoxic, single point] | –
35 | Cc1nn(C(C)C(=O)N2CCCCC2)c(=O)c2c1sc1ccccc12 (configuration not stated) | – | inactive: 1.65%
36 | CCc1c(C)nc2cc(-c3ccc(OC)cc3)[nH]n2c1=O | inconclusive: 12.6 µM [cytotoxic, partial curve] | –
37 | CCc1nc2ccc(C(=O)N3CCN(c4ccc(Cl)cc4)CC3)cc2nc1CC | inconclusive: 0.501 µM [cytotoxic, full curve, poor fit] | –
38 | CCc1nc(SCC(=O)NCc2ccco2)c2c3c(sc2n1)CCCC3 | – | inactive: -12.6%
39 | CCN(CCCNC(=O)c1cc2cc3ccc(OC)cc3nc2s1)c1ccccc1 | inconclusive: 15.8 µM [cytotoxic, single point] | –
40 | CCN(CC)c1ccc(NC(=O)CSc2nc(C)cc(=O)[nH]2)cc1 | – | inactive: -9.9%
41 | Cc1cccc(N2CCN(C(=O)C3CCN(c4nnc(-n5cccc5)s4)CC3)CC2C)c1 (configuration not stated) | inconclusive: 31.6 µM [cytotoxic, single point] | –
42 | C[N@@+]1(Cc2ccc(Cl)c(Cl)c2)CCC[C@@H]1c1ccc[n+](Cc2ccc(Cl)c(Cl)c2)c1 | – | inactive: 4.77% [at 9.22 µM]
43 | CC(C)Cn1c(/C=C/c2ccc(F)cc2)nc2ccccc21 | active: 10 µM | –
44 | COc1ccccc1NC(=O)C1=C(C)Nc2nc(SCc3cc(C)ccc3C)nn2C1c1ccccc1 (configuration not stated) | inconclusive: 0.0079 µM [cytotoxic, full curve, poor fit] | –
45 | CC(C)C(=O)OCc1cc(=O)n2nc(C3CCCCC3)sc2n1 | inconclusive: 0.0032 µM [cytotoxic, full curve, poor fit] | –
46 | COc1cccc(NC(=S)N/N=C2/CCCCc3ccccc32)c1 | active: 22.4 µM | –

Row | SMILES | Potency | activity change, negative = cell killing
47 | Cc1ccc(NC(=O)Cn2c(=O)ccc3cc(S(=O)(=O)N4CCC(C)CC4)ccc32)cc1Cl | inconclusive: 12.6 µM [cytotoxic, single point] | –
48 | COc1cccc(OCc2nc3ccccc3n2CCOc2cccc(C)c2)c1 | inconclusive: 25.1 µM [cytotoxic, partial curve] | –
49 | CCOC(=O)c1ccc(Nc2ncnc3nc[nH]c23)cc1 | inconclusive: 7.94 µM [cytotoxic, partial curve] | –
50 | CC1CCC(C(C)C)C(OC(=O)Cn2c(-c3ccc(F)cc3)[n+](C)c3ccccc32)C1 (configuration not stated) | inconclusive: 12.6 µM [cytotoxic, single point] | –
51 | COc1ccc(NS(=O)(=O)c2ccc3[nH]c4c(c3c2)CCCCCC4)cc1 | inconclusive: 31.6 µM [cytotoxic, single point] | –
52 | Fc1ccc(CNc2nc(-c3ccccc3)cc(C(F)(F)F)n2)cc1 | inconclusive: 20 µM [cytotoxic, single point] | –
53 | CC(=O)OCC1OC(C#Cc2ccc(C)cc2C)C=CC1OC(C)=O (configuration not stated) | inconclusive: 3.16 µM [cytotoxic, single point] | –
54 | COc1cccc(-c2ccc3c(N)c(C(=O)Nc4ccc(C)c(F)c4)sc3n2)c1 | inconclusive: 15.8 µM [cytotoxic, single point] | –
55 | CCOc1cc(C2c3c(-c4ccccc4O)n[nH]c3C(=O)N2CCc2ccccc2)ccc1O (configuration not stated) | inconclusive: 25.1 µM [cytotoxic, partial curve, poor fit] | –
56 | Cc1ccc(OCC(=O)Nc2ccc(C(=O)OCc3cc(=O)n4c(C)csc4n3)cc2)cc1 | inconclusive: 10 µM [cytotoxic, partial curve] | –
57 | Cn1c(CCNC(=O)c2ccco2)nc2cc(NC(=O)COc3ccc(Cl)cc3)ccc21 | – | inactive: -7.18%
58 | COc1ccc2nc(NC3=NCCC3)sc2c1 | inconclusive: 10 µM [cytotoxic, partial curve] | –
59 | CCc1cccc(NCc2ccccc2-c2nnc(-c3ccccc3Cl)o2)c1 | – | inactive: -17.6%
60 | O=C(CSc1nnc(SCc2ccc(Cl)cc2)s1)N1CCOCC1 | inconclusive: 12.6 µM [cytotoxic, single point] | –
61 | CSc1nn(Cc2ccc(Br)cc2)c(N(C(C)=O)C(C)=O)c1S(=O)(=O)c1ccccc1 | inconclusive: 12.6 µM [cytotoxic, single point] | –
62 | O=S(=O)(Nc1cccc(-c2ccc(N3CCCCC3)nn2)c1)c1ccc(Cl)s1 | active: 5.01 µM | –
63 | COC(=O)/C(=C1/Oc2cc(C)oc(=O)c2S1)C(F)(F)F | – | inactive: 5.4%
64 | Cc1cc(OCC(=O)N2CCOCC2)ccc1NC(=O)C1CCCCC1 | – | inactive: -4.7%
65 | CCN(CC)c1ccc(NC(=O)C2COc3ccc(OC)cc3C2)c(C)c1 (configuration not stated) | inconclusive: 0.005 µM [cytotoxic, full curve, poor fit] | –
66 | CCSc1ncc(Cl)c(C(=O)N2CCN(c3ccc(OC)cc3)CC2)n1 | – | inactive: 0.272%
67 | C=Cc1ccc(Cn2c(=O)n(-c3cccc(C)c3)c(=O)c3c2c2cc(C)ccc2n3C)cc1 | inconclusive: 31.6 µM [cytotoxic, single point] | –
